Assay results: the supplement of paper PMC10126150
Sequences with one replicate were seen in a single cluster, so their values are uncertain.

The sequences below were run on ATP (assay: switch fluorescence ratio, 500 uM ATP over buffer (Cy3 cluster intensity, sum of 5 cycles each) (fold (ratio)); higher = stronger signal-on switching upon ATP binding; sequences stand for … in TCGTCGGCAGCGTCAGATGTGTATAAGAGACAGTTTTTTTTTTTTTTTTTTTTTTTTT…TC). Conditions: aptamer strand: ATP DNA aptamer (quencher-CACCTGGGGGAGTATTGCGGAGGAAGG + anchor), 100 nM annealed; ATP concentration: 500 uM; one replicate.
Method in brief: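 Exposure to 500 uM ATP lasted 15 min at 22 °C before imaging, and a selection-buffer image was taken beforehand, for Cy3-labelled switching-strand clusters on a modified Illumina MiSeq flow-cell annealed to 100 nM quencher-labelled ATP aptamer. Five buffer/ATP cycles were run with NaOH stripping and re-annealing between them. The fluorescence ratio per cluster is summed target-cycle over summed buffer-cycle Cy3 intensity, averaged per switch-domain sequence. Clusters outside 100-1000 RFU were excluded.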

Row | Sequence | switch fluorescence ratio
1 | GAGTGGAGTA | 0.849
2 | GAGTGGCACT | 0.964
3 | GAGTGGGGCC | 1.01
4 | GAGTGTACTA | 1.04
5 | GAGTGTTCGT | 0.983
6 | GAGTTAAAGG | 1
7 | GAGTTAACTG | 0.806
8 | GAGTTAAT | 1.02
9 | GAGTTACCGC | 0.97
10 | GAGTTATACA | 1.01
11 | GAGTTATTAG | 0.988
12 | GAGTTCCTTT | 0.998
13 | GAGTTCGGAG | 0.953
14 | GAGTTCGGCT | 0.944
15 | GAGTTCTGCT | 1.02
16 | GAGTTGATAG | 1
17 | GAGTTGTTGC | 0.977
18 | GAGTTTATTC | 0.991
19 | GAGTTTTATT | 1.01
20 | GAGTTTTCCC | 1.02
21 | GATAACGCGG | 1.11
22 | GATAACGCGT | 1.08
23 | GATAACTCGA | 0.999
24 | GATAAGAGGA | 0.994
25 | GATAAGCGAA | 1.04
26 | GATAATGGCT | 1.01

Row | Sequence | switch fluorescence ratio
27 | GATAATTTCG | 1.04
28 | GATACCACGG | 1.18
29 | GATACTAAAC | 1.14
30 | GATACTAAAT | 1.01
31 | GATACTAGGT | 1.03
32 | GATACTCATC | 0.984
33 | GATACTCTGT | 1.03
34 | GATAGAAACA | 1.02
35 | GATAGAATCT | 1.03
36 | GATAGAGAAT | 0.953
37 | GATAGAGTGT | 1
38 | GATAGCCAGG | 1.24
39 | GATAGCGACT | 0.958
40 | GATAGCGGGG | 0.967
41 | GATAGGC | 0.978
42 | GATAGTAATC | 1
43 | GATAGTACTG | 1.05
44 | GATATACCAG | 1.04
45 | GATATAGACC | 1.14
46 | GATATCAATG | 0.999
47 | GATATCATGT | 1.02
48 | GATATCCCAT | 0.99
49 | GATATGATGC | 1.02
50 | GATATGTG | 0.994
51 | GATCAAACTC | 0.984
52 | GATCAAATA | 0.977

Row | Sequence | switch fluorescence ratio
53 | GATCAATCGT | 1.02
54 | GATCAGCCAG | 1.03
55 | GATCATTGGG | 0.959
56 | GATCCGTGGC | 1.14
57 | GATCGAATCA | 1
58 | GATCGAGCGC | 1.05
59 | GATCGAGTAC | 0.965
60 | GATCGCTGA | 1.1
61 | GATCGCTGGG | 1.03
62 | GATCGGAGAC | 1.04
63 | GATCGGGGG | 1.02
64 | GATCGTAGT | 0.977
65 | GATCGTCCGC | 1.85
66 | GATCGTGGCT | 0.99
67 | GATCGTTCAG | 0.969
68 | GATCGTTCT | 1.03
69 | GATCTAGCTG | 1.03
70 | GATCTATGCA | 0.992
71 | GATCTCTCAC | 1.06
72 | GATCTGCAGT | 1.11
73 | GATCTGTTT | 0.962
74 | GATCTGTTTG | 1.01
75 | GATCTTCACG | 0.968
76 | GATCTTCGTC | 1.01
77 | GATCTTGTCG | 1.01
78 | GATGAAAGCG | 1.01

Row | Sequence | switch fluorescence ratio
79 | GATGAAGTGA | 1
80 | GATGAAGTTT | 0.921
81 | GATGACAACT | 0.97
82 | GATGAGTTAT | 0.992
83 | GATGATCGGC | 0.955
84 | GATGATGAG | 0.969
85 | GATGCAACGT | 1.04
86 | GATGCAAGCT | 1.15
87 | GATGCACGGT | 1.01
88 | GATGCAGCTC | 1.16
89 | GATGCAGGAT | 1.07
90 | GATGCAGGGG | 2.3
91 | GATGCCCTTG | 0.988
92 | GATGCCTACG | 1.06
93 | GATGCGGTCT | 1.03
94 | GATGCTTGT | 1.01
95 | GATGGACTTG | 1.02
96 | GATGGATCAA | 1.01
97 | GATGGCAGCC | 0.894
98 | GATGGCATTG | 0.991
99 | GATGGCGCGT | 1.07
100 | GATGGCTCAT | 1.07
101 | GATGGGACT | 1.05
102 | GATGGGGA | 1.01
103 | GATGGGGGCT | 0.964
104 | GATGGGTGCA | 0.993

Row | Sequence | switch fluorescence ratio
105 | GATGGGTTAG | 1.02
106 | GATGGTACCT | 1.07
107 | GATGGTACGA | 1.02
108 | GATGGTACTG | 0.996
109 | GATGGTGCG | 0.965
110 | GATGGTGGAG | 0.998
111 | GATGGTGGC | 0.938
112 | GATGTAAGTA | 1
113 | GATGTACTCA | 0.989
114 | GATGTATGG | 0.987
115 | GATGTATTAC | 1.15
116 | GATGTCCTAG | 0.96
117 | GATGTCGT | 1
118 | GATGTGTATT | 0.995
119 | GATGTGTCAA | 1.02
120 | GATGTTGGCC | 1.02
121 | GATGTTGGGT | 1.01
122 | GATTAAATTG | 0.988
123 | GATTAACGGA | 1.06
124 | GATTAAGGTG | 1.19
125 | GATTAATAGA | 1.01
126 | GATTATAGGA | 0.966
127 | GATTCAAAAG | 1.03
128 | GATTCACCTG | 0.976
129 | GATTCCACTT | 1.05
130 | GATTCCCGAA | 0.995

Row | Sequence | switch fluorescence ratio
131 | GATTCCGTAA | 1.37
132 | GATTCCGTTC | 1.03
133 | GATTCGGTTA | 0.942
134 | GATTCGTACA | 0.98
135 | GATTCTTTAG | 0.97
136 | GATTCTTTGT | 0.971
137 | GATTGAAATG | 0.972
138 | GATTGCAAAC | 1.89
139 | GATTGCAGGT | 0.99
140 | GATTGCATCT | 1.02
141 | GATTGCTATA | 0.998
142 | GATTGGAGAG | 1
143 | GATTGGATAT | 1.02
144 | GATTGGATCA | 0.991
145 | GATTGGGAAG | 0.996
146 | GATTGGTGCT | 1.02
147 | GATTGTCAAC | 0.994
148 | GATTGTTCAC | 0.966
149 | GATTTAATG | 1.02
150 | GATTTATAAC | 0.979
151 | GATTTCGCGA | 1.08
152 | GATTTCGGTT | 1.01
153 | GATTTCTTTT | 1
154 | GATTTGACGC | 0.993
155 | GATTTGCGCA | 0.957
156 | GATTTTGTCG | 0.95

Row | Sequence | switch fluorescence ratio
157 | GCAAAAGGTG | 1.02
158 | GCAAAATGTG | 1
159 | GCAAATGAAT | 0.96
160 | GCAACACAAA | 0.992
161 | GCAACATTAT | 1.01
162 | GCAACTGAGG | 1.03
163 | GCAACTGTTA | 1.07
164 | GCAAGCTGGT | 0.942
165 | GCAAGTCACT | 1.05
166 | GCAAGTTCGC | 1.05
167 | GCAATCATAC | 2.39
168 | GCAATCCACA | 1.19
169 | GCAATGGGTA | 1.07
170 | GCAATTAAAA | 0.928
171 | GCAATTTCGT | 1.06
172 | GCAATTTGGC | 1.07
173 | GCAATTTGTT | 1.04
174 | GCAATTTTAA | 0.973
175 | GCACACGCAG | 0.974
176 | GCACACGGGA | 1.09
177 | GCACATCTGC | 1.01
178 | GCACATGAGT | 1.04
179 | GCACCCTTCG | 1.26
180 | GCACCTTAAC | 1.24
181 | GCACCTTC | 1.27
182 | GCACGAGGTA | 1.01

Row | Sequence | switch fluorescence ratio
183 | GCACGGCGCT | 1.07
184 | GCACGGCTAG | 1.02
185 | GCACGTACGG | 1.53
186 | GCACGTAGTG | 0.98
187 | GCACGTCGTC | 1.13
188 | GCACTAGCTT | 1.02
189 | GCACTATG | 0.967
190 | GCACTATTTA | 0.997
191 | GCACTCGTTC | 1.03
192 | GCACTGATGG | 0.96
193 | GCACTGTTTC | 1.05
194 | GCACTTGGAA | 1.01
195 | GCACTTTGAA | 1.01
196 | GCACTTTGGG | 0.942
197 | GCACTTTTGG | 1.01
198 | GCAGAACGGA | 0.976
199 | GCAGAAGTTA | 1.03
200 | GCAGAATTGC | 0.98
201 | GCAGACATCC | 1.08
